172 sequences from publication PMC5836133 can be followed below.

The other results are listed elsewhere or left out. At the low end of the ranking, values are background and their order means little.

The test system of the test is T1, GST-NbGlk1(82-244).
T1 sequence: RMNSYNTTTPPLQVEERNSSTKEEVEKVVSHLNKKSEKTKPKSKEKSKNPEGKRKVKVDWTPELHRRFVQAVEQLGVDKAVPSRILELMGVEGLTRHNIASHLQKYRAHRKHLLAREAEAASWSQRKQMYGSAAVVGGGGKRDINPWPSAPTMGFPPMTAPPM
Description: protein-binding microarray.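 Also: rank-based score ranging −0.5 to +0.5 with E above 0.45 taken as significant binding.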 The following applies: NbGlk1 is a Golden2-like transcription factor of Nicotiana benthamiana; high values mean tight binding; most listed sequences are background and not binding sites; double strand, one strand shown.
Turning to ATTATCGA, the binding signal was 0.108 E-score.
The same measure for ACGAGTGG: -0.0745 E-score.
The same measure for ATGGAACC: -0.162 E-score; for ATTGACGG: -0.0847 E-score; for AAGCAAGT: 0.0212 E-score.
The same measure for AATAATGG: 0.166 E-score; for AACTCTCA: -0.0697 E-score.
In turn, AGACGCCC gave a binding signal of -0.354 E-score.
The value for AGGGCGAT was 0.134 E-score; that for AATTCTAT was 0.22 E-score; that for AACGCACG was -0.192 E-score.
The same measure for AAGAATTG: -0.042 E-score; for AATTTTCT: 0.243 E-score; for ATTATCTG: 0.286 E-score.
In the case of ACATGTGA, the binding signal is 0.201 E-score.
In the case of AACACTGA, the binding signal was 0.00175 E-score.
The sequence AGACTAAC showed a binding signal of -0.189 E-score.
With ACGTGGCA, the binding signal was -0.183 E-score.
In turn, AGCGCGCA returned a binding signal of 0.0458 E-score.
The value for ACTTTCGG was -0.0965 E-score; that for AAGAGGAA was -0.0777 E-score; that for AGACCCTA was -0.205 E-score.
Regarding ACAGCAGG, the binding signal was -0.184 E-score.
Sequence ATCTGACC gave a binding signal of 0.234 E-score.
The value for ACGCAATA was 0.282 E-score.
In the case of AGTAAACG, the binding signal was found to be 0.0905 E-score.
In turn, ACGATATC yielded a binding signal of 0.444 E-score.
The value for CAAGTCTA was -0.182 E-score.
The value for AAGGCACA was -0.228 E-score.
The value for ACTCCTGA was -0.0405 E-score; that for AAGGACTT was -0.112 E-score; that for ATTCCTTA was 0.228 E-score.
For the sequence ACGTGAGT, the binding signal is -0.0776 E-score.
The same measure for AGTGCCGA: -0.0181 E-score.
The value for ATCGCGAA was 0.323 E-score.
The same measure for AAACTCGG: -0.0199 E-score.
In turn, ACCCCGAC returned a binding signal of -0.205 E-score.
Turning to AAAACCGT, the binding signal is 0.0125 E-score.
The same measure for AATCTCGC: 0.411 E-score.
Consider ATCTCTGA, for which the binding signal stood at 0.269 E-score.
The same measure for ATGTTTGC: -0.19 E-score.
The value for AGGATGAG was 0.0489 E-score.
The same measure for CAATCATG: 0.174 E-score.
Sequence AGATAAAG returned a binding signal of -0.174 E-score.
In turn, ACCCCGGA returned a binding signal of -0.0849 E-score.
The value for ATTGGTAC was 0.134 E-score; that for AACAGTCA was -0.0215 E-score.
AGCATTAC gave a binding signal of -0.0277 E-score.
Turning to ACTGGGCG, the binding signal is -0.258 E-score.
As to ATAACAAT, the binding signal stood at 0.136 E-score.
The value for AGACACCA was -0.0759 E-score; that for AAGTCAAA was -0.0854 E-score; that for AGTAACCG was -0.146 E-score.
The value for ACTCCAGA was -0.121 E-score.
The value for ATTTCAGG was 0.159 E-score; that for ATTAGGGG was -0.0741 E-score; that for AGATACCT was 0.216 E-score.
As to ATTGAAAC, the binding signal is -0.0966 E-score.
The sequence ATCAACGA came in with a binding signal of 0.211 E-score.
The value for ATGGGGTC was -0.291 E-score; that for ACGCCCAA was -0.0866 E-score; that for ATGGAGAA was -0.0331 E-score.
On to AGAAGTCG, for which the binding signal was -0.124 E-score.
The same measure for AAACTCTA: -0.1 E-score; for AAGAAACC: -0.0252 E-score.
The value for ACACGGTC was -0.291 E-score; that for AGTATGTG was 0.0648 E-score.
Consider AGGCTCGG, for which the binding signal is -0.159 E-score.
The same measure for ATGCCTAC: 0.0371 E-score; for AAAGGCTT: -0.133 E-score; for ATGAGTGC: -0.0499 E-score.
The value for AATGGGTC was -0.214 E-score.
The value for ATTTGGAC was 0.119 E-score; that for ATGCTTTC was -0.0199 E-score.
Regarding AAACACTA, the binding signal worked out at 0.184 E-score.
The same measure for ACCTATAG: 0.000693 E-score.
The same measure for ACAGCTGA: -0.00258 E-score.
The same measure for AAGCTCTA: -0.197 E-score; for ATTAGGTA: 0.136 E-score; for ACGTCAAG: 0.0656 E-score.
Sequence AGCTTTAC had a binding signal of -0.0365 E-score.
The sequence ACATTCAC displayed a binding signal of -0.0115 E-score.
The value for CAAATTCC was 0.158 E-score; that for AACGGAAA was 0.101 E-score; that for ACTCTAAG was -0.237 E-score.
The value for AGAGCGTG was -0.187 E-score; that for CAGCGGCC was -0.339 E-score; that for AAACATTG was -0.0364 E-score.
The value for AATCACAA was 0.346 E-score; that for ACTTCCGA was 0.021 E-score.
AGAGACAC returned a binding signal of -0.134 E-score.
The value for CAAGGACC was -0.274 E-score.
The value for AATCTGAT was 0.414 E-score; that for ACGCACAT was 0.122 E-score.
The same measure for ACTTTTCA: -0.0467 E-score.
In turn, ACTCTACA displayed a binding signal of 0.0504 E-score.
The same measure for ATCCTCAC: 0.142 E-score; for CAAGCTCC: -0.236 E-score.
Turning to ACTAACCA, the binding signal is -0.122 E-score.
The value for ACATCTGA was 0.0862 E-score; that for ATCGCTGC was 0.148 E-score; that for AAGCTATC was -0.00396 E-score.
The same measure for AGACAGCG: -0.15 E-score.
The same measure for AATAGAAT: 0.256 E-score; for ACCCAACT: -0.211 E-score.
AATTGGCC registered a binding signal of -0.175 E-score.
Turning to AGATACCG, the binding signal worked out at 0.364 E-score.
The value for AGCATTTC was -0.0542 E-score; that for CAGAAGGA was -0.129 E-score.
The value for ATTTCAAG was 0.23 E-score.
Regarding ATAATGGA, the binding signal is 0.184 E-score.
In turn, CAGATGCG displayed a binding signal of 0.013 E-score.
The value for ATAGTTTG was 0.0629 E-score.
Regarding AATGTGCT, the binding signal is -0.106 E-score.
The value for AGTTCCAA was -0.0756 E-score; that for ACTTGGGC was -0.27 E-score; that for AAGGCTTG was -0.171 E-score.
The value for ATCCAAAC was 0.241 E-score; that for ATTTATCC was 0.0354 E-score; that for CACAGTTC was -0.0236 E-score.
As for CAGATTAC, the binding signal was 0.477 E-score.
On to ACGGAGAT, for which the binding signal was 0.324 E-score.
The sequence AGAGAAGG yielded a binding signal of -0.228 E-score.
The same measure for ACTGTATG: -0.0811 E-score; for ACGGGCTG: -0.264 E-score; for ATATAATA: 0.201 E-score.
The same measure for AGATGGAA: -0.198 E-score; for ATCCGAAT: 0.333 E-score; for AACAGGGC: -0.206 E-score.
The same measure for CAAAGTAC: -0.0842 E-score.
In turn, CAATGAAC had a binding signal of -0.149 E-score.
As to ATACATAC, the binding signal is 0.139 E-score.
The same measure for AGCGACGG: -0.248 E-score.
The same measure for AAGTTAGC: -0.0457 E-score; for ACTATAAG: -0.0357 E-score; for CAATCATC: 0.106 E-score.
The same measure for AATTCTCA: 0.243 E-score; for AGGGCGGA: 0.0685 E-score.
The sequence ACGTGTGA registered a binding signal of -0.059 E-score.
The value for ACCTACTC was -0.139 E-score; that for ATTTAAAG was 0.222 E-score; that for ATCACCGG was 0.0837 E-score.
As for AGTACGTG, the binding signal turned out to be 0.049 E-score.
For AAGAAGGT, the binding signal is -0.17 E-score.
The value for AGAAACGC was -0.0257 E-score.
The value for CACACTAC was -0.0284 E-score; that for ATCTTTAC was 0.23 E-score; that for AGTTTCCC was -0.105 E-score.
The value for ACGATTTA was 0.172 E-score.
In the case of AATAATTA, the binding signal was 0.146 E-score.
The value for AAACTACC was -0.0432 E-score; that for ACCAGTAG was -0.0836 E-score; that for ATCCAAGG was -0.00438 E-score.
The same measure for ATGTGAAA: 0.166 E-score; for AAGATTCG: 0.41 E-score.
The value for AGAAGTTG was -0.00793 E-score; that for AGCGCAGA was -0.00562 E-score.
As to AGAAATCG, the binding signal stood at 0.338 E-score.
On to ACTGCTCC, for which the binding signal is -0.0435 E-score.
With ATCTCTAA, the binding signal is 0.216 E-score.
AAGCGATG came in with a binding signal of -0.0189 E-score.
The same measure for CACTCATG: -0.0769 E-score.
Consider ACACTAAG, for which the binding signal is -0.0222 E-score.
The same measure for ACTCCAAT: 0.0888 E-score; for CAAATCGA: 0.28 E-score.
The value for ACCCATGC was -0.251 E-score.
The sequence CACCGATG registered a binding signal of -0.121 E-score.
Regarding CAAGGTTC, the binding signal is -0.147 E-score.
The same measure for AAGAGCCC: -0.256 E-score; for AACGACGG: -0.0607 E-score; for AAACCTCT: -0.222 E-score.
The same measure for AAACCGCG: -0.00344 E-score.
